Laboratory results as given in PubChem BioAssay AID686970 (National Center for Advancing Translational Sciences (NCATS), 2013).
Among all 360,000 compounds or so, about 6,000 (1.7%) were called active. Inconclusive means that the source gave no clear call. Such entries were picked first, then a sample of the others. Calls follow the shape of the dose curve; as a rule, active = well fitted cell-killing curve with a large enough effect; inconclusive = small, poorly fitted or top-dose-only effect, or effect the other way; inactive = flat fitted curve, though single readings scatter. No potency is given beside an inconclusive call; the fits are too rough.

Test: qHTS for induction of synthetic lethality in tumor cells producing 2HG: qHTS for the HT-1080-NT fibrosarcoma cell line;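 also: NT is the 2HG producing partner of a matched IDH1 knockdown line; nearly all actives have a fitted effect of over 55% in size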;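 as to activity, negative = less viability: 0% = DMSO-treated cells and -100% = media-only wells without cells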
Conditions: HT-1080-NT fibrosarcoma viability, CellTiter-Glo ATP luminescence, 48 h; activity, negative = less viability: at 46.1 µM (top of the series) unless noted
In short: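 Read-out is CellTiter-Glo luminescence after 10 minutes at room temperature, following 48 hours' compound treatment of HT-1080-NT cells (750 cells/well, RPMI, 5% FBS, 37 degrees C).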
Potency is read from the fitted curve at half-maximal effect; tags tell the direction and shape of the fitted curve.

Question: For CCC1(C)Cc2c(sc3[nH]c(=S)n(Cc4ccccc4)c(=O)c23)CO1 (centres undefined), which Potency is on record?
Answer: inconclusive [cytotoxic, partial curve]

Question: With OC1(c2ccccc2)CC(c2ccccc2)c2ccccc2O1 (centres undefined) as the compound, how does the Potency read?
Answer: inconclusive [cytotoxic, single point]

Question: Which Potency does the source give for Cc1ccc(S(=O)(=O)N2[C@@H](c3cccc(Cl)c3)C(C(=O)O)=CC[C@H]2c2ccc(Cl)c(Cl)c2)cc1 here?
Answer: inconclusive [cytotoxic, single point]

Question: For O=C(CSc1nnc(-c2cccs2)n1Cc1ccco1)Nc1ccc2c(c1)OCO2, which “activity, negative = less viability” value is on record?
Answer: inactive: -5.91%

Question: For N#CC1=C(N)Oc2cc(N)ccc2C1c1ccc(F)cc1F (centres undefined), which Potency is on record?
Answer: inconclusive [cytotoxic, single point]

Question: With CCNC(=O)C1CCCN(Cc2ccc(C(=O)OCC)cc2)CC1 (centres undefined) as the compound, how does the “activity, negative = less viability” value read?
Answer: inactive: 19.3%

Question: Which “activity, negative = less viability” value does the source give for Cc1ccc(-n2nnnc2SCC(=O)Nc2ccc3c(c2)COC3=O)cc1C here?
Answer: inactive: -23.1%

Question: For CC(C)N(Cc1ccccc1)CC(O)COc1ccc(S(=O)(=O)N2CCOCC2)cc1Cl (centres undefined), which “activity, negative = less viability” value is on record?
Answer: inactive: -27.4%

Question: For Oc1cc2c(cc1O)[C@H]1c3ccc(O)c(O)c3OC[C@@]1(O)C2, which Potency is on record?
Answer: inconclusive [cytotoxic, partial curve]

Question: With CC(OC(=O)c1cc(O)c2ccccc2c1O)C(=O)Nc1ccc(C(N)=O)cc1 (centres undefined) as the compound, how does the Potency read?
Answer: active: 16.4 µM

Question: With CN(c1ccc(Cl)cc1)c1cc2c(c3c1ccn3C)C1CCC2O1 (centres undefined) as the compound, how does the “activity, negative = less viability” value read?
Answer: inactive: -15.7%

Question: Which Potency does the source give for COc1ccc(Nc2ncnc3scc(-c4ccc(OC)cc4)c23)cc1 here?
Answer: inconclusive [cytotoxic, partial curve]

Question: For CC(C)Cn1c(N)c(C(=O)COC(=O)/C=C/c2cccs2)c(=O)n(C)c1=O, which Potency is on record?
Answer: inconclusive [cytotoxic, single point]

Question: For CNC(=O)Nc1cc(C)nn1C, which “activity, negative = less viability” value is on record?
Answer: inactive: 1.28%

Question: With CS(=O)(=O)c1nc(-c2ccc(F)cc2)cc(C(F)(F)F)n1 as the compound, how does the Potency read?
Answer: active: 20.6 µM

Question: With CCOc1ccc(/C(C)=N/NC(=O)c2nnn(-c3nonc3N)c2-c2cccs2)cc1 as the compound, how does the activity, negative = less viability read?
Answer: inconclusive: 8.19%

Question: Which Potency does the source give for CCOC(=O)C1=C(N)Oc2cc(O)ccc2C1c1cccc(Cl)c1 (centres undefined) here?
Answer: active: 9.2 µM

Question: Which Potency does the source give for CCOC(=O)[C@]12CCC=C1N(Cc1ccc(Cl)cc1Cl)C(=O)[C@H](CC(=O)N1CCCCC1)C2 here?
Answer: inconclusive [cytotoxic, single point]

Question: For COc1cc(CCC(=O)Nc2c(C(=O)N3CCN(c4ccccc4)CC3)oc3ccccc23)on1, which “activity, negative = less viability” value is on record?
Answer: inactive: 1.58%

Question: For COc1ccccc1NC(=O)c1cc(S(=O)(=O)NCc2ccccc2)ccc1F, which Potency is on record?
Answer: inconclusive [cytotoxic, single point]

Question: With COC(=O)c1ccc(-c2ccc(OC)c([C@H]3[C@H]4C=CC[C@@H](C)[C@@H]4C(=O)N3Cc3ccccc3)c2)cc1 as the compound, how does the “activity, negative = less viability” value read?
Answer: inactive: -0.634%

Question: Which Potency does the source give for O=C(c1ccc(CS(=O)c2ccccc2Cl)o1)N1CCN(c2ccccc2)CC1 (centres undefined) here?
Answer: inconclusive [cytotoxic, full curve]

Question: With O=C(Cn1c(C(F)(F)F)nc2ccccc21)N=Nc1c(O)[nH]c2ccc(Br)cc12 as the compound, how does the “activity, negative = less viability” value read?
Answer: inactive: 0.722%

Question: Which Potency does the source give for CCOC(=O)C1=NOC2(C1)C(=O)Nc1c(Cl)cccc12 (centres undefined) here?
Answer: inconclusive [rising, single point]

Question: With CCC(c1nc2ccccc2c(=O)n1-c1nc2ccccc2s1)N1C(=O)c2ccccc2C1=O (centres undefined) as the compound, how does the “activity, negative = less viability” value read?
Answer: inactive: -7.42%

Question: For Cc1cccc2sc(N(CCCN(C)C)C(=O)c3ccc(S(=O)(=O)N4CCc5ccccc5C4)cc3)nc12, which Potency is on record?
Answer: inconclusive [cytotoxic, partial curve]

Question: With N/C(=N\c1nc2ccccc2o1)NC(=O)c1ccc(F)cc1 as the compound, how does the Potency read?
Answer: inconclusive [cytotoxic, partial curve]

Question: Which Potency does the source give for N#Cc1c(Nc2ccccc2Cl)s[nH]c1=O here?
Answer: inconclusive [cytotoxic, single point]

Question: With CC(=O)Oc1ccccc1Cn1c(C)c(C(=O)NCc2ccc(Cl)c(Cl)c2)sc1=O as the compound, how does the Potency read?
Answer: inconclusive [cytotoxic, single point]

Question: With COc1ccccc1C(=O)Nc1nnc(CCc2ccccc2)s1 as the compound, how does the Potency read?
Answer: active: 7.31 µM

Question: Which Potency does the source give for COc1ccc(S(=O)(=O)Nc2ccccc2C(=O)Nc2nc(-c3ccc(F)cc3)cs2)cc1OC here?
Answer: inconclusive [cytotoxic, single point]

Question: Which Potency does the source give for Cn1cc(-c2coc3c(C(=O)NCc4ccco4)cccc23)cn1 here?
Answer: inconclusive [cytotoxic, single point]

Question: For Cc1ccc(CC(=O)Nc2nc3ccccc3[nH]2)cc1C, which Potency is on record?
Answer: inconclusive [cytotoxic, single point]

Question: Which activity, negative = less viability does the source give for CC(=O)OCC(=O)[C@@]1(O)CC[C@H]2[C@@H]3CCC4=CC(=O)CC[C@]4(C)[C@H]3[C@@H](O)C[C@@]21C here?
Answer: inconclusive: 42.5%

Question: For CCc1ccccc1OCC(=O)Nc1ccc2c(c1)OCCO2, which Potency is on record?
Answer: inconclusive [rising, full curve, poor fit]

Question: With CCCc1ccc(C2=Nn3c(nnc3C(C)C)SC2)cc1 as the compound, how does the Potency read?
Answer: inconclusive [cytotoxic, single point]

Question: With CC(C)(C)c1ccccc1OCCCCCn1ccnc1 as the compound, how does the Potency read?
Answer: inconclusive [cytotoxic, single point]

Question: For CCOc1cc(NS(=O)(=O)c2ccc(Cl)cc2)c(OCC)cc1NC(=O)CC(C)C, which Potency is on record?
Answer: inconclusive [cytotoxic, single point]

Question: For O=C(Nc1ccccc1-c1ccccc1)C1CCCC1, which Potency is on record?
Answer: inconclusive [cytotoxic, partial curve]

Question: For CC1(C(=O)NS(=O)(=O)Cc2cccc(Cl)c2)CCN1C(=O)c1cccc(F)c1 (centres undefined), which “activity, negative = less viability” value is on record?
Answer: inactive: 8.4%

Question: Which Potency does the source give for Cc1ccccc1NC(=O)CN1CCN(C)CC1 here?
Answer: inconclusive [rising, partial curve]

Question: With COc1ccc(C(=O)Nc2ccccc2-c2nnn(CC(N)=O)n2)cc1 as the compound, how does the Potency read?
Answer: inconclusive [cytotoxic, single point]

Question: Which Potency does the source give for CC(C)(C)c1ccc(-c2cn(-c3ccc(Br)cc3)c3[n+]2CCCS3)cc1 here?
Answer: active: 23.1 µM

Question: With N/C(=N\OC(=O)c1ccccc1)C(Cc1ccccc1)C(=O)NOC(=O)c1ccccc1 (centres undefined) as the compound, how does the Potency read?
Answer: inconclusive [cytotoxic, single point]
